Measured values published in paper PMC4336329 (PLoS ONE, 2015).
Screen size: about 310,000 compounds; about 14,000 (4.5%) showed an effect of 50% or more. Effects have a minus sign here. Some of the results follow.

What follows are compounds tested against human ether-à-go-go-related gene (hERG) potassium channel (human, UniProt Q12809) (assay: primary screen, population patch clamp on CHO cells stably expressing hERG).
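Further: peak tail current of the secondary pulse compared with the same well before compound.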

Chain of human ether-à-go-go-related gene (hERG) potassium channel (Q12809 whole entry, looked up): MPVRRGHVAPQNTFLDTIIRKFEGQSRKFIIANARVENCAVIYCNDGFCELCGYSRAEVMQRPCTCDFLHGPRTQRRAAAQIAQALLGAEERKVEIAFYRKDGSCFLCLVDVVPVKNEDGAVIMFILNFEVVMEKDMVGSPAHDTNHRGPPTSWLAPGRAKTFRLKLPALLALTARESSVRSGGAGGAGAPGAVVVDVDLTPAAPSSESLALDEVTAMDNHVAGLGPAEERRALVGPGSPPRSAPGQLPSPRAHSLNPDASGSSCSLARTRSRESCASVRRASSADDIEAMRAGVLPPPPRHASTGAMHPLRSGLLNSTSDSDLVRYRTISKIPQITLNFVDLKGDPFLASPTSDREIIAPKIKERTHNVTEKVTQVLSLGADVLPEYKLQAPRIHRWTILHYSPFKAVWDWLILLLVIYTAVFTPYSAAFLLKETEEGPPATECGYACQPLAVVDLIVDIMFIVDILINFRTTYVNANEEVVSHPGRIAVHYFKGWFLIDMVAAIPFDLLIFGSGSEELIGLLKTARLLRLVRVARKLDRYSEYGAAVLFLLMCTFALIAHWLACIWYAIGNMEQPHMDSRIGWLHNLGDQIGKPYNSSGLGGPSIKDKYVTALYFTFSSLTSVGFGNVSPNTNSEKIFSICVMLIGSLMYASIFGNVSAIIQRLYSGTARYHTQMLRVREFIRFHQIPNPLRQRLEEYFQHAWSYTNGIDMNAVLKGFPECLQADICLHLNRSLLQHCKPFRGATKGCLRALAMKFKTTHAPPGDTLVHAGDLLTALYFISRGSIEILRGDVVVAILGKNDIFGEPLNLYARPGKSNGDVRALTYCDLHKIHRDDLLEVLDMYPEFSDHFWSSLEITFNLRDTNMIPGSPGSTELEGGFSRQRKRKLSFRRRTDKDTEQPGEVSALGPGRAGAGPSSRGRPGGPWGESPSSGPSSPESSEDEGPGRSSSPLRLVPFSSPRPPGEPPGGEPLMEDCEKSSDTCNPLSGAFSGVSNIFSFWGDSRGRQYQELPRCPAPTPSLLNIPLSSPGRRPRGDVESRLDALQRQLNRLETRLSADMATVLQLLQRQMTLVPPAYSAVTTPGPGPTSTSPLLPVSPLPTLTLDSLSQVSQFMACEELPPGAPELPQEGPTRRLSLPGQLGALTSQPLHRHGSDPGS

Compared with `CCCC(O)(c1ccc(Cl)cc1)C(CN1CCOCC1)c1ccc(Cl)cc1.Cl` (stereo not drawn), `CCc1ccc(C2CC(c3ccc(Cl)cc3)n3nc(N)nc3N2)cc1` (stereo not drawn) is lower in “hERG current change (%, negative = inhibition) at 10uM” value: 0.717% for the first, -10.3% for the second.

Going from `CCN(c1ccccc1)S(=O)(=O)c1ccc(Oc2ccc(-n3ccnc3)cc2)nc1` to `Cc1cccc(C2Nc3ccccc3C(=O)N2c2ccccc2)n1` (stereo not drawn), the “hERG current change (%, negative = inhibition) at 10uM” value rises from -77.4% to 4.41%.

First: COc1cccc(C(=O)Nc2cc3c(cc2C(C)=O)OCCO3)c1
Second: COc1cccc(/C=C2/SC(=S)N(CCC(=O)N3CCOCC3)C2=O)c1
The “hERG current change (%, negative = inhibition) at 10uM” value of the first is lower: -8.73% for the first, 15.2% for the second.

Going from `CCOC(=O)c1sc(NC(=O)c2cc3n(n2)C(C(F)(F)F)CC(c2ccccc2)N3)c(C(=O)OCC)c1C` (stereo not drawn) to `CCCn1c(SCC(=O)c2c(C)[nH]c(C)c2C(=O)OCC)nc2ccccc21`, the “hERG current change (%, negative = inhibition) at 10uM” value falls from 21.2% to -26.1%.

Going from `Cc1ccc(S(=O)(=O)N2C(=O)CCC2C(=O)NCc2ccco2)cc1` (stereo not drawn) to `Cc1ccc(S(=O)(=O)NNC(=O)c2ccc(F)cc2)cc1`, the “hERG current change (%, negative = inhibition) at 10uM” value rises from 9.17% to 19.4%.

First: Cc1ccc(/C(N)=N/OC(=O)Oc2ccccc2)cc1
Second: O=C(O)CSc1nnc(COc2ccccc2)n1-c1ccccc1
The “hERG current change (%, negative = inhibition) at 10uM” value of the first is higher: 6.28% for the first, -17.1% for the second.

Compared with `Cc1cc(N2CCOCC2)nc2ccc(NC(=O)CCC(=O)N3CCC(C)CC3)cc12`, `Cc1ccc(Nc2cc(C)nc(N3CCOCC3)n2)cc1` is higher in “hERG current change (%, negative = inhibition) at 10uM” value: -2.73% for the first, 6.18% for the second.

Compared with `COc1ccc(CNc2cc(C)ccc2C)c(OC)c1OC`, `COCC(=O)Nc1cc(C)cn(Cc2c(F)cccc2Cl)c1=O` is higher in “hERG current change (%, negative = inhibition) at 10uM” value: -15.1% for the first, 13.1% for the second.

Compared with `CN(C)Cc1c(C(=O)N/N=C/c2ccc(OCc3ccc(F)cc3)cc2)nnn1-c1nonc1N`, `CCn1c(SCC(=O)N/N=C/c2ccc(O)c(OC)c2)nc2ccccc21` is lower in “hERG current change (%, negative = inhibition) at 10uM” value: 18.9% for the first, 2.36% for the second.

Compared with `CCOC(=O)C1=C(N)OC2=C(C(=O)CC(C)(C)C2)C1c1ccccc1OCC#N` (stereo not drawn), `Cc1ccc(-n2c3c(c(O)c(-c4ccccc4)c2=O)C(=O)CC(C)(C)C3)cc1` is lower in “hERG current change (%, negative = inhibition) at 10uM” value: 2.57% for the first, -55.2% for the second.

First: CCOC(=O)[C@H]1[C@H]2COc3ccc(Br)cc3[C@@H]2N2C(=O)c3ccc(C)cc3NC(=O)[C@@]12C
Second: CN(C)c1ccc(CNC(=O)C2CCN(S(=O)(=O)c3ccc4c(c3)CCC(=O)N4)CC2)cc1
The “hERG current change (%, negative = inhibition) at 10uM” value of the first is higher: 14.3% for the first, 2.12% for the second.

Going from `O=S(=O)(Nc1ccccn1)c1cnc(Cl)c(Br)c1` to `O=C(COC(=O)c1cc(S(=O)(=O)N2CCCC2)ccc1O)NCCc1ccccc1`, the “hERG current change (%, negative = inhibition) at 10uM” value falls from -2.25% to -7.17%.

Going from `COc1ccc(N2C(=O)N3[C@H](c4cccc(C)c4)[C@@H]4C(=O)N(Cc5ccccc5)C(=O)[C@@H]4[C@]3(Cc3ccccc3)C2=O)cc1` to `O=S(=O)([N-]c1nc2ccccc2nc1-[n+]1ccc(Cc2ccccc2)cc1)c1ccc(Br)s1`, the “hERG current change (%, negative = inhibition) at 10uM” value falls from 5.36% to -36.3%.

Compared with `COC(=O)c1cc(C)sc1NC(=O)CCCC(=O)O`, `C=CCn1c(C)cc(C(=O)COC(=O)[C@@H](NC(=O)c2ccccc2Cl)C(C)C)c1C` is lower in “hERG current change (%, negative = inhibition) at 10uM” value: 27.3% for the first, -7.65% for the second.

Compared with `N#Cc1c(NC(=O)CSc2ncccn2)oc(-c2ccccc2)c1-c1ccccc1`, `COc1ccccc1NC(=O)C(C)Sc1nc(-c2ccccc2)cn1N` (stereo not drawn) is lower in “hERG current change (%, negative = inhibition) at 10uM” value: 25.2% for the first, -45.3% for the second.

First: NC(=O)CN1CCN(CCN2C(=O)c3cccc4cccc(c34)C2=O)CC1
Second: COC(=O)c1scc(C)c1N1C(=O)c2ccccc2C1=O
The “hERG current change (%, negative = inhibition) at 10uM” value of the first is lower: -5.61% for the first, 3.5% for the second.

First: CCOc1cc(C(=O)NCCc2ccc(S(N)(=O)=O)cc2)cc(OCC)c1OCC
Second: Cc1ccnc(NS(=O)(=O)c2ccc(NC(=O)c3ccc(N4C(=O)CCC4=O)cc3)cc2)n1
The “hERG current change (%, negative = inhibition) at 10uM” value of the first is higher: 17.9% for the first, 7.58% for the second.

Compared with `Cc1ccccc1S(=O)(=O)N1[C@@H](c2ccc(F)cc2)C(C(=O)O)=CC[C@H]1c1ccc(Cl)cc1`, `CC(=O)Nc1ccc(S(=O)(=O)N2CCN(c3nnnn3-c3ccccc3)CC2)cc1` is higher in “hERG current change (%, negative = inhibition) at 10uM” value: 0.353% for the first, 13.1% for the second.

Compared with `CCOC(=O)C1(Cc2cccc(F)c2)CCN(C2CCOCC2)CC1`, `CCOC(=O)c1cnn(CC2CCCCC2)c1N` is higher in “hERG current change (%, negative = inhibition) at 10uM” value: -63.5% for the first, 1.4% for the second.

Going from `COc1ccc(/C=C/C2=NN(C)C(=O)CC2)cc1` to `COc1ccc(NC(=S)N2CCC(NC(=O)c3ccccc3C)CC2)cc1`, the “hERG current change (%, negative = inhibition) at 10uM” value rises from 13.4% to 19.6%.

First: CCCc1ccc2oc(C(=O)N3CCC[C@H]3CO)c(C)c2c1
Second: CCn1cc(C(=O)N2CCCC2)c(=O)c2cc(S(=O)(=O)N(C)C)ccc21
The “hERG current change (%, negative = inhibition) at 10uM” value of the first is lower: -2.59% for the first, 7.8% for the second.

First: COC(=O)c1cc2ccsc2n1Cc1nc(-c2cccc(Cl)c2)oc1C
Second: CCN(C(=O)CSc1nc2cc(Cl)ccc2c(=O)n1Cc1ccco1)C1CCS(=O)(=O)C1 (stereo not drawn)
The “hERG current change (%, negative = inhibition) at 10uM” value of the first is higher: -28.6% for the first, -74.7% for the second.

Going from `CC1CCCCN1C(=S)NC(=O)c1ccco1` (stereo not drawn) to `CC(C)NC(=O)C1CCN(C(=O)c2ccc(-c3ccccc3)cc2)CC1`, the “hERG current change (%, negative = inhibition) at 10uM” value falls from 6.05% to -1.8%.

Going from `O=c1c2ccccc2ncn1CCOCCOc1ccc([N+](=O)[O-])cc1` to `OCCCc1nc2ccccc2n1CCc1ccccc1`, the “hERG current change (%, negative = inhibition) at 10uM” value rises from -64.3% to -9.94%.

First: S=C(NCc1ccc(Cl)cc1Cl)Nc1ccccc1
Second: c1ccc(CCNCC2COc3ccccc3O2)cc1 (stereo not drawn)
The “hERG current change (%, negative = inhibition) at 10uM” value of the first is higher: 10.1% for the first, -6.6% for the second.

First: COc1cc(/C=N/Nc2nc(=O)[nH]nc2C)cc([N+](=O)[O-])c1O
Second: COc1ccc(S(=O)(=O)N2CCCCC2)cc1NC(=O)CNc1ccccc1N1CCCC1=O
The “hERG current change (%, negative = inhibition) at 10uM” value of the first is higher: 2.08% for the first, -20.4% for the second.

Compared with `CCCCCSc1nnc(C)c(=O)[nH]1`, `Cc1cccc(C)c1OC(=O)CCN1C(=O)C2C3C=CC(C4CC34)C2C1=O` (stereo not drawn) is lower in “hERG current change (%, negative = inhibition) at 10uM” value: 9.47% for the first, 1.91% for the second.
